# Measured values reported in the supplement of paper PMC8728848.
# Some of the results follow.
# B1: GS13455A-bfa-343-25-343 (Bacteroides fragilis) (protein)
# chain: KDEIQIVDQDTSWQMDNKYIEEDIREQLGIDPFTDLVYLGYYGNPYTQLEAINDLVNTTLVGKNELSFKVKVTKPYKEDIKVNLMKEDKLVTDFPEMAEGIPLFPSENCTFEGGVLKAGELETTVKLTLKDVEKLNNLSGYVMAIKLTMEGSHEHLAIARTRSSYFVKLNLSIRLDNIDSSNKKIEGKGFNKEISFKSDIRPDKLGSLNDGNFTANNWYTSNANNYLTIILPEKQSLKGFRLDTNTSPSGSYMLKSCRVMVETPDGNWVNHGVFDRKSMDGIAYISFKKPVECTKVRFENMMAFNGRFSVDVNEVTAFR
# Key:
# Experiment in all cases: glycan array binding signal (z-score within array); higher = stronger binding
# Conditions in all cases: glycan notation: IUPAC condensed, linker removed
# [1] = biological target: GlcNAc(b1-4)GlcNAc(b1-4)GlcNAc(b1-4)GlcNAc(b1-4)GlcNAc(b1-4)GlcNAc
# Summary of the method: (§1)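 From the Consortium for Functional Glycomics database, 3228 arrays were curated, keeping only those whose protein sequence was available. Binding is given as a within-array Z-score averaged across arrays sharing a protein sequence and across linkers. Negative Z-scores can be read as non-binding.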
# [2] = biological target: GlcNAc(b1-4)[GlcNAc(b1-6)]GalNAc
# Summary of the method: as §1
# [3] = biological target: GlcNAc(b1-6)Gal(b1-4)GlcNAc
# Summary of the method: as §1
# [4] = biological target: GlcNAc(b1-6)GalNAc
# Summary of the method: as §1
# [5] = biological target: GlcNAc6S(b1-3)Gal(b1-4)GlcNAc
# Summary of the method: as §1
# [6] = biological target: Kdn(a2-3)Gal(b1-3)GalNAc
# Summary of the method: as §1
# [7] = biological target: Kdn(a2-3)Gal(b1-3)GlcNAc
# Summary of the method: as §1
# [8] = biological target: Kdn(a2-3)Gal(b1-4)Glc
# Summary of the method: as §1
# [9] = biological target: Kdn(a2-3)Gal(b1-4)GlcNAc
# Summary of the method: as §1
# [10] = biological target: Kdn(a2-3)Gal(b1-4)[Fuc(a1-3)]GlcNAc
# Summary of the method: as §1
# [11] = biological target: Kdn(a2-6)Gal(b1-4)GlcNAc
# Summary of the method: as §1
# [12] = biological target: Man(a1-2)Man(a1-2)Man(a1-3)Man
# Summary of the method: as §1
# [13] = biological target: Man(a1-2)Man(a1-2)Man(a1-6)[Man(a1-3)]Man
# Summary of the method: as §1
# [14] = biological target: Man(a1-2)Man(a1-3)Man
# Summary of the method: as §1
# [15] = biological target: Man(a1-2)Man(a1-3)[Man(a1-2)Man(a1-6)]Man
# Summary of the method: as §1
# [16] = biological target: Man(a1-2)Man(a1-3)[Man(a1-2)Man(a1-6)]Man(a1-6)[Man(a1-2)Man(a1-2)Man(a1-3)]Man
# Summary of the method: as §1
# [17] = biological target: Man(a1-2)Man(a1-3)[Man(a1-2)Man(a1-6)]Man(a1-6)[Man(a1-2)Man(a1-2)Man(a1-3)]Man(b1-4)GlcNAc(b1-4)GlcNAc
# Summary of the method: as §1
# [18] = biological target: Man(a1-2)Man(a1-3)[Man(a1-6)]Man(a1-6)[Man(a1-2)Man(a1-3)]Man(b1-4)GlcNAc(b1-4)GlcNAc
# Summary of the method: as §1
# [19] = biological target: Man(a1-2)Man(a1-6)[Man(a1-3)]Man(a1-6)[Man(a1-2)Man(a1-2)Man(a1-3)]Man
# Summary of the method: as §1
# [20] = biological target: Man(a1-2)Man(a1-6)[Man(a1-3)]Man(a1-6)[Man(a1-2)Man(a1-2)Man(a1-3)]Man(b1-4)GlcNAc(b1-4)GlcNAc
# Summary of the method: as §1
# [21] = biological target: Man(a1-3)[Man(a1-6)]Man
# Summary of the method: as §1
# [22] = biological target: Man(a1-3)[Man(a1-6)]Man(a1-6)[Man(a1-2)Man(a1-3)]Man(b1-4)GlcNAc(b1-4)GlcNAc
# Summary of the method: as §1
# [23] = biological target: Man(a1-3)[Man(a1-6)]Man(a1-6)[Man(a1-3)]Man
# Summary of the method: as §1
# [24] = biological target: Man(a1-3)[Man(a1-6)]Man(a1-6)[Man(a1-3)]Man(b1-4)GlcNAc(b1-4)GlcNAc
# Summary of the method: as §1
# [25] = biological target: Man(a1-3)[Man(a1-6)]Man(b1-4)GlcNAc(b1-4)GlcNAc
# Summary of the method: as §1
# [26] = biological target: Man(a1-3)[Man(a1-6)]Man(b1-4)GlcNAc(b1-4)[Fuc(a1-6)]GlcNAc
# Summary of the method: as §1
# [27] = biological target: Man(a1-6)Man
# Summary of the method: as §1
# [28] = biological target: Man(b1-4)GlcNAc
# Summary of the method: as §1
# [29] = biological target: MurNAc(b1-4)GlcNAc
# Summary of the method: as §1
# [30] = biological target: Neu5Ac(a2-3)Gal
# Summary of the method: as §1
# [31] = biological target: Neu5Ac(a2-3)Gal(b1-3)GalNAc
# Summary of the method: as §1
# [32] = biological target: Neu5Ac(a2-3)Gal(b1-3)GalNAc(b1-3)Gal(a1-4)Gal(b1-4)Glc
# Summary of the method: as §1
# [33] = biological target: Neu5Ac(a2-3)Gal(b1-3)GalNAc(b1-4)[Neu5Ac(a2-3)]Gal(b1-4)Glc
# Summary of the method: as §1
# [34] = biological target: Neu5Ac(a2-3)Gal(b1-3)GalNAc(b1-4)[Neu5Ac(a2-8)Neu5Ac(a2-3)]Gal(b1-4)Glc
# Summary of the method: as §1
# [35] = biological target: Neu5Ac(a2-3)Gal(b1-3)GalNAc6S
# Summary of the method: as §1
# [36] = biological target: Neu5Ac(a2-3)Gal(b1-3)GlcNAc
# Summary of the method: as §1
# [37] = biological target: Neu5Ac(a2-3)Gal(b1-3)GlcNAc(b1-2)Man
# Summary of the method: as §1
# [38] = biological target: Neu5Ac(a2-3)Gal(b1-3)GlcNAc(b1-2)Man(a1-3)[GlcNAc(b1-4)][Neu5Ac(a2-3)Gal(b1-3)GlcNAc(b1-2)Man(a1-6)]Man(b1-4)GlcNAc(b1-4)GlcNAc
# Summary of the method: as §1
# [39] = biological target: Neu5Ac(a2-3)Gal(b1-3)GlcNAc(b1-2)Man(a1-3)[Neu5Ac(a2-3)Gal(b1-3)GlcNAc(b1-2)Man(a1-6)]Man(b1-4)GlcNAc(b1-4)GlcNAc
# Summary of the method: as §1
# [40] = biological target: Neu5Ac(a2-3)Gal(b1-3)GlcNAc(b1-3)Gal(b1-3)GlcNAc
# Summary of the method: as §1
# [41] = biological target: Neu5Ac(a2-3)Gal(b1-3)GlcNAc(b1-3)Gal(b1-4)GlcNAc
# Summary of the method: as §1
# [42] = biological target: Neu5Ac(a2-3)Gal(b1-3)GlcNAc(b1-3)GalNAc
# Summary of the method: as §1
# [43] = biological target: Neu5Ac(a2-3)Gal(b1-3)GlcNAc(b1-4)Gal(b1-4)Glc
# Summary of the method: as §1
# [44] = biological target: Neu5Ac(a2-3)Gal(b1-3)GlcNAc(b1-6)GalNAc
# Summary of the method: as §1
# [45] = biological target: Neu5Ac(a2-3)Gal(b1-3)GlcNAc6S
# Summary of the method: as §1
binder,measurement,setting,value
B1,glycan array binding signal (z-score),[1],-0.011
same,glycan array binding signal (z-score),[2],0.259
same,glycan array binding signal (z-score),[3],-0.248
same,glycan array binding signal (z-score),[4],-0.656
same,glycan array binding signal (z-score),[5],-0.789
same,glycan array binding signal (z-score),[6],-0.38
same,glycan array binding signal (z-score),[7],0.445
same,glycan array binding signal (z-score),[8],-0.418
same,glycan array binding signal (z-score),[9],0.438
same,glycan array binding signal (z-score),[10],-0.619
same,glycan array binding signal (z-score),[11],-0.249
same,glycan array binding signal (z-score),[12],-0.655
same,glycan array binding signal (z-score),[13],-0.171
same,glycan array binding signal (z-score),[14],-0.645
same,glycan array binding signal (z-score),[15],-0.554
same,glycan array binding signal (z-score),[16],-0.701
same,glycan array binding signal (z-score),[17],-0.034
same,glycan array binding signal (z-score),[18],-0.408
same,glycan array binding signal (z-score),[19],0.988
same,glycan array binding signal (z-score),[20],-0.88
same,glycan array binding signal (z-score),[21],0.245
same,glycan array binding signal (z-score),[22],-0.013
same,glycan array binding signal (z-score),[23],-0.129
same,glycan array binding signal (z-score),[24],-0.501
same,glycan array binding signal (z-score),[25],-0.715
same,glycan array binding signal (z-score),[26],-0.639
same,glycan array binding signal (z-score),[27],0.205
same,glycan array binding signal (z-score),[28],0.213
same,glycan array binding signal (z-score),[29],-0.095
same,glycan array binding signal (z-score),[30],0.476
same,glycan array binding signal (z-score),[31],0.08
same,glycan array binding signal (z-score),[32],1.31
same,glycan array binding signal (z-score),[33],0.544
same,glycan array binding signal (z-score),[34],0.711
same,glycan array binding signal (z-score),[35],-0.524
same,glycan array binding signal (z-score),[36],0.555
same,glycan array binding signal (z-score),[37],0.354
same,glycan array binding signal (z-score),[38],-0.756
same,glycan array binding signal (z-score),[39],0.088
same,glycan array binding signal (z-score),[40],-0.78
same,glycan array binding signal (z-score),[41],0.373
same,glycan array binding signal (z-score),[42],0.126
same,glycan array binding signal (z-score),[43],-0.201
same,glycan array binding signal (z-score),[44],-0.483
same,glycan array binding signal (z-score),[45],1.08
